In the RNAGym collection of RNA variant scans (doi:10.1093/nar/gkz1192):
The source gives no read counts; variants with many changes may rest on few reads.

B1: CPEB3 Ribozyme (parent)
chain: UAACAGGGGGCCACAGCAGAAGCGUUCACGUCGCAGCCCCUGUCAGAUUCUGGUGAAUCUGCGAAUUCUGCUGUAUAUCUC

Variants of: B1
Test: self-cleavage, relative activity (ratio to wild type); higher = more cleavage; in vitro, sequencing
Outline: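 Libraries of CPEB3 self-cleaving ribozyme mutants came from rounds of error-prone PCR and carried barcodes, which DNA sequencing matched to variants. In vitro transcription used T7 RNA polymerase at 37°C for 5 hours, with a further 15 min in DNase I before EDTA stopped the reaction; the ribozymes cleaved during both steps. The RNA was reverse transcribed with template switching and sequenced on Illumina. Relative activity is the cleaved/total read fraction of a variant divided by that of the unmutated ribozyme, averaged over three batches with at least 5 reads.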

Variant | self-cleavage
UAAUAGGGGGCCACAGCCGAAGCGUUCUCGUCGCAGCCCCUGUCAGAUUCUGGUGAAUCUGCGAAUUCUGCUGUAUAUCUC [C4U A18C A28U] | 0.48
UAAUAGGGGGCCACAGCGGAAGCGUUCACGUCGCAGCCCCUGUCGGAAUCUGGUGAAUCUGCGAAUUCUGCCGUAUAUCUC [C4U A18G A45G U48A U72C] | 0.14
UAAUAGGGGGCCACAGCUGAAGCGCUCACGUCGCAGCCCCUGUCAGAUUCUGGUGAAUCUGCGAAUUCUGCUGUAUAUCUC [C4U A18U U25C] | 0.1
UAAUAGGGGGCCACAGCAGGAGCGUUCCCCUCGCAGCACCUGCCAGAUUCUGGUGAAUCUGCGAAUUCUGCUGUAUAUCUC [C4U A20G A28C G30C C38A U43C] | 0.13
UAAUAGGGGGCCACAGCAGGAGCGUUCACGUCGCGGCCCCUGUCGGAUUCUGGUGAAUCUGCGAAUUCUGCUGUAUAUCUC [C4U A20G A35G A45G] | 1.07
UAAUAGGGGGCCACAGCAGGAGCGUUCACUUCGCAGCCCCUGUCAGAUACUGGUGUAUCUGCGAAUUCUGCUGUAUAUCCC [C4U A20G G30U U49A A56U U80C] | 0.17
UAAUAGGGGGCCACAGCAGGAGCGUUCACGUCGCAGCCCCUGUCAGAUUCUGGUGAAUCUGCGAACUCUGCUGUGUAUCUC [C4U A20G U66C A75G] | 0.24
UAAUAGGGGGCCACAGCAGUAGCGUUCACGUCGCAGCCCCUGUCAGAUUCUGGUGUAUCUGCGAAUUCCGCUGUAUAUCUC [C4U A20U A56U U69C] | 0.14
UAAUAGGGGGCCACAGCAGAGGCGUUCACGUCGCAGCCCCAGUCAGAUUCUGGAGAAUCUGCGAAUUCUGCUGUAUAUCCC [C4U A21G U41A U54A U80C] | 0.53
UAAUAGGGGGCCACAGCAGAGGCGUUCACGUCGCAGCCCCUGUCAGAUGCUGGCGAGUCUGCGAAUUCUGCCGUAUUUCUC [C4U A21G U49G U54C A57G U72C A77U] | 0.25
UAAUAGGGGGCCACAGCAGAAGCGUUCGCGUCGCGGCCCCUGACAGAUUCUGGUGAAUCUGCGAAUUCUGCUGUAUAUCUC [C4U A28G A35G U43A] | 1.11
UAAUAGGGGGCCACAGCAGAAGCGUUCGCGUCGCAGCCCCUGUCAGAUUCUGGUGAAUCUGCGAAUUCCGCUGUAUAUCUC [C4U A28G U69C] | 0.17
UAAUAGGGGGCCACAGCAGAAGCGUUCACGUCGCGGCCCCUGUCUGAUUCUGGUGAAUCUGCGAAUUCUGCUGUAUAUCUC [C4U A35G A45U] | 1.19
UAAUAGGGGGCCACAGCAGAAGCGUUCACGUCGCGGACCCUGUCAGAUUCUGGUGAAUCUGCGAACUCUGCUGUAUAUCUC [C4U A35G C37A U66C] | 0.33
UAAUAGGGGGCCACAGCAGAAGCGUUCACGUCGCUGCCCCUGCCAGAUACUGGUGAAUCUGCGGAUUCUGCUGUAUACCUC [C4U A35U U43C U49A A64G U78C] | 0.08
UAAUAGGGGGCCACAGCAGAAGCGUUCACGUCGCAGCCCCUGUCUGAUUCUGGUGAAACUGCGAAUUCUGCUGUAUAUCUC [C4U A45U U58A] | 0.21
UAAUAGGGGGCCACAGCAGAAGCGUUCACGUCGCAGCCCCUGUCAGAUUCUGGUGAGUCAGCGAAUUCUGCUGUAUAUCAC [C4U A57G U60A U80A] | 0.84

Variant | self-cleavage
UAAUAGGGGGCUACAGCAGAAGCGUUCACGUCGCAGCCCCUGUCAGAUUCUGGUGAAUCUGCGGAUUCUGCUGUAUAUCUC [C4U C12U A64G] | 1.3
UAAUAGGGGGCCACAGUAGAAGCGUUCACGUCGCAGCCCCUGUCGGAUUCUGGUGAAUCUGCGAAUUCUGCUGUAUAUCUC [C4U C17U A45G] | 1.17
UAAUAGGGGGCCACAGCAGAAGCGUUCACGUCGCAGCCACUGUCAGAUUCUGGUGACUCUGCGAAUUCUGCUGUAUAUCUC [C4U C39A A57C] | 0.15
UAAUAAGGGGCCACAGCAGAAGCGUUCACGUCGCCGCCCCUGUCAGAUUCUGGUGAAUCUGCGAAUUCUGCUGUAUAUCUC [C4U G6A A35C] | 0.2
UAAUAAGGGGCCACAGCAGAAGCGUUCACGUCGCAGACCCUGUCGGAUUCUGGUGAAUCUGCGAAUUCUGCUGUAUAUCUC [C4U G6A C37A A45G] | 0.11
UAAUAGGAGGCCACAGCGGGAGCGUUUACGUCGCAGCCCCUGUCAGAUUCUGGUGAAUCUGCGAAUUCUGUUGUAUAUCUC [C4U G8A A18G A20G C27U C71U] | 0.05
UAAUAGGAGGCCACAGCAGAGGCGUUCACGUCGUAGCCCCUGUCAGAUUCUGGUGAAUCUGCGAAUUCUGCUGUAUAUCUC [C4U G8A A21G C34U] | 0.08
UAAUAGGGGGCCACAGCAGAAGCGUUCACGUCGCAGCCCCUGUCAUACUCUGGUGAGUCUGCGAAUUCUGCAAUAUAUCUC [C4U G46U U48C A57G U72A G73A] | 1.16
UAAUAGGGGGCCACAGCAGAAGCGCUCACGUCGCACCCCCUGUCAGAUUCUGGAGAAUCUGCCAAUUCUGCUGUAUACCUC [C4U U25C G36C U54A G63C U78C] | 0.1
UAAUAGGGGGCCACAGCAGAAGCGCUCACGUCGCAGCCCCUGUCAGAUUCGGGUGAAUCUGCGAAUUCAGCCGUAUAUCUC [C4U U25C U51G U69A U72C] | 0.05
UAAUAGGGGGCCACAGCAGAAGCGUACACGUCGCAGCCCCUGUCAGAUACUGGUGAAUCUGCGAAUUCUGCUGUAUAUCUC [C4U U26A U49A] | 0.65
UAAUAGGGGGCCACAGCAGAAGCGUACACGUCGCAGCCCCUGUCAGAUUCUGGUGAAUCCGCGAAUUCUGCUGUAUACCUC [C4U U26A U60C U78C] | 0.77
UAAUAGGGGGCCACAGCAGAAGCGUCCACGUCGCAGCCCCUGUCUGAUUCUGGUGAAUCCGCGUAUUCUGCUGUAUAUCUC [C4U U26C A45U U60C A64U] | 0.18
UAAUAGGGGGCCACAGCAGAAGCGUCCACGUCGCAGCCCCUGUCAGAUUCUGGUGGAUCUGCGAAUUCUGCUGUAUUUCUC [C4U U26C A56G A77U] | 0.5
UAAUAGGGGGCCACAGCAGAAGCGUCCACGUCGCAGCCCCAGUCAGAUCCUGGUGAAUCUGCGGAUUCUGCUGUAUAUCUC [C4U U26C U41A U49C A64G] | 0.3
UAAUAGGGGGCCACAGCAGAAGCGUUCACGCCGUAGCCCCUGUCAGAUUCUGGUGAAUCUGCGAAUUCUGCUGUAUACCUC [C4U U31C C34U U78C] | 0.2
UAAUAGGGGGCCACAGCAGAAGCGUUCACGCCGCAGCCCCUGUUAGAUUCUGGUGAACCAGCGAAUUCUGCUGUAUAUCUC [C4U U31C C44U U58C U60A] | 0.21
